According to the RNAGym collection of RNA variant scans (doi:10.7554/elife.90254):
Read counts are not given, so values of variants with three or more changes are uncertain.

B1: LINE1-full (parent)
chain: UACGUAGGUGGUUUUCCCCUGAUAGUGCUAAGGGGGCCUGGAAGUUUGGACUGGGCAGAGCUCAACACAGCGUGGCAAAGUGGCUGUGGCUAGACUGCCUCUCUGGAUUCCUCGUCACUCAGCAGGGCAUCUCUGAGAGAAAUGCC

Variants of: B1
Assay: self-cleavage, relative activity (ratio to wild type); higher = more cleavage; in vitro, sequencing; the parent is a self-cleaving ribozyme

| Variant | self-cleavage |
| --- | --- |
| UACGUAGGUGGUUUUCCCCUGAUAGUGCUAAGGGGGCCUGGAAGUUUGGACUGGGCAGAGCUCAACACAGCGUGGCAAAGUGGCUGUGGCUAGUCUGCCUCUCUGGACUCCUCGUCACUCAGCAGGGCAUCUCUGAGAGGAAUGCC [A94U U108C A140G] | 0.25 |
| UACGUAGGUGGUUUUCCCCUGAUAGUGCUAAGGGGGCCUGGAAGUUUGGACUGGGCAGAGCUCAACACAGCGUGGCAAAGUGGCUGUGGCUAGGCUGCCUCUCUGGAUUCCUCGUCACUCAGCAGGGCAUUUCUGUGAGAAAUGCC [A94G C131U A136U] | 0.32 |
| UACGUAGGUGGUUUUCCCCUGAUAGUGCUAAGGGGGCCUGGAAGUUUGGACUGGGCAGAGCUCAACACAGCGUGGCAAAGUGGCUGUGGCUAGGCUGCCUCUCUGGAUUCCUCGUCACUCAGCUGGGCACCUCUGAGAGAAAUGCC [A94G A124U U130C] | 0.48 |
| UACGUAGGUGGUUUUCCCCUGAUAGUGCUAAGGGGGCCUGGAAGUUUGGACUGGGCAGAGCUCAACACAGCGUGGCAAAGUGGCUGUGGCUAGGCUGCUUCUCUGGAUUCCUCGUCACCCAGCAGGGCAUCUCUGAGAGAAAUGCC [A94G C99U U119C] | 0.15 |
| UACGUAGGUGGUUUUCCCCUGAUAGUGCUAAGGGGGCCUGGAAGUUUGGACUGGGCAGAGCUCAACACAGCGUGGCAAAGUGGCUGUGGCUAGUCUGCCUCUCUGGAUUCCUCGUCACCCAGCAUGGCAUCUCUAAGAGAAAUGCC [A94U U119C G125U G135A] | 0.33 |
| UACGUAGGUGGUUUUCCCCUGAUAGUGCUAAGGGGGCCUGGAAGUUUGGACUGGGCAGAGCUCAACACAGCGUGGCAAAGUGGCUGUGGCUAGGCUGCCUCACCGGAUUCCUCGUCACUCAGCAGGGCAUCUCUGAGAGAAAUGCC [A94G U102A U104C] | 0.97 |
| UACGUAGGUGGUUUUCCCCUGAUAGUGCUAAGGGGGCCUGGAAGUUUGGACUGGGCAGAGCUCAACACAGCGUGGCAAAGUGGCUGUGGCUAGAAUGCCUCUCUGGAUUCCCCGCCACUCAGCAGGGCAUCUCUGAGAGAAAUGCC [C95A U112C U115C] | 0.04 |
| UACGUAGGUGGUUUUCCCCUGAUAGUGCUAAGGGGGCCUGGAAGUUUGGACUGGGCAGAGCUCAACACAGCGUGGCAAAGUGGCUGUGGCUAGGCUGCCUCUCUGGAUUCCUCGUCACUUAGCGGGGCAUCUCUGAGAGAAAUGCC [A94G C120U A124G] | 0.17 |
| UACGUAGGUGGUUUUCCCCUGAUAGUGCUAAGGGGGCCUGGAAGUUUGGACUGGGCAGAGCUCAACACAGCGUGGCAAAGUGGCUGUGGCUAGGCAGCCUCUCUGGAUUCCUCGUCACUCAGCAGGGCAUCUCUGGGAGAAAAGCC [A94G U96A A136G U143A] | 0.08 |
| UACGUAGGUGGUUUUCCCCUGAUAGUGCUAAGGGGGCCUGGAAGUUUGGACUGGGCAGAGCUCAACACAGCGUGGCAAAGUGGCUGUGGCUACACUGCCUCUCUGGAUUCCUCUUCACUCAGCAGGGCAUCUCUGAGAGAAACGCC [G93C G114U U143C] | 0.03 |
| UACGUAGGUGGUUUUCCCCUGAUAGUGCUAAGGGGGCCUGGAAGUUUGGACUGGGCAGAGCUCAACACAGCGUGGCAAAGUGGCUGUGGCUAGGCAGCCUCUCCGGAUUCCUCGUCACUCAGCAGGGCACCUCUGAGAGAAAUGCC [A94G U96A U104C U130C] | 0.42 |
| UACGUAGGUGGUUUUCCCCUGAUAGUGCUAAGGGGGCCUGGAAGUUUGGACUGGGCAGAGCUCAACACAGCGUGGCAAAGUGGCUGUGGCUAGGCUGCCUCUCUGGAUUCCUCGUCACUCAGCAGGGCAUCUCCGAGAGAAGUGCC [A94G U134C A142G] | 0.28 |
| UACGUAGGUGGUUUUCCCCUGAUAGUGCUAAGGGGGCCUGGAAGUUUGGACUGGGCAGAGCUCAACACAGCGUGGCAAAGUGGCUGUGGCUAGGCUGCCUCUCAGGAUUCCUCGUCACUCGGCAGGGCAUCUCUGAGAGAAAUGCC [A94G U104A A121G] | 0 |
| UACGUAGGUGGUUUUCCCCUGAUAGUGCUAAGGGGGCCUGGAAGUUUGGACUGGGCAGAGCUCAACACAGCGUGGCAAAGUGGCUGUGGCUAGGCUGCCUCUUUGGAUUCCUCGUCACUCAGCAGGGCAUCUCAGAGAGAAAUGCC [A94G C103U U134A] | 0.15 |
| UACGUAGGUGGUUUUCCCCUGAUAGUGCUAAGGGGGCCUGGAAGUUUGGACUGGGCAGAGCUCAACACAGCGUGGCAAAGUGGCUGUGGCUAGAUUGCCUCUCUGGAUCCCUCGUCACUCAGCGGGGCAUCUCUGAGAGAAAUGCC [C95U U109C A124G] | 0.08 |
| UACGUAGGUGGUUUUCCCCUGAUAGUGCUAAGGGGGCCUGGAAGUUUGGACUGGGCAGAGCUCAACACAGCGUGGCAAAGUGGCUGUGGCUAGGCAGCCUCUCUGGAUUCCUCGUCACUCAGCAGGGCAUCUCUGAGAGAGAUGCC [A94G U96A A141G] | 0.1 |
| UACGUAGGUGGUUUUCCCCUGAUAGUGCUAAGGGGGCCUGGAAGUUUGGACUGGGCAGAGCUCAACACAGCGUGGCAAAGUGGCUGUGGCUAGGCUGCCUCUCUGGAUUCCUCGACACUCAGCAGGGCAUCUCUGAGGGAAAUGCC [A94G U115A A138G] | 0.31 |
| UACGUAGGUGGUUUUCCCCUGAUAGUGCUAAGGGGGCCUGGAAGUUUGGACUGGGCAGAGCUCAACACAGCGUGGCAAAGUGGCUGUGGCUAGGCUGCCUCCCUGGAUACCUCGUCACUCAGCAGGGCAUCUCUGAGAGAAAUGCC [A94G U102C U109A] | 0.46 |
| UACGUAGGUGGUUUUCCCCUGAUAGUGCUAAGGGGGCCUGGAAGUUUGGACUGGGCAGAGCUCAACACAGCGUGGCAAAGUGGCUGUGGCUAGUCUGCCUCUCUGGAUUCCUCGCCACUCAGCAGGGCAUCUCUGAGAGAAAUGCU [A94U U115C C146U] | 0.46 |
| UACGUAGGUGGUUUUCCCCUGAUAGUGCUAAGGGGGCCUGGAAGUUUGGACUGGGCAGAGCUCAACACAGCGUGGCAAAGUGGCUGUGGCUAUACUGCCUCUCAGGACUCCUCGUCACUCAGCAGGGCAUCUCUGAGAGAAAUGCC [G93U U104A U108C] | 0.03 |

| Variant | self-cleavage |
| --- | --- |
| UACGUAGGUGGUUUUCCCCUGAUAGUGCUAAGGGGGCCUGGAAGUUUGGACUGGGCAGAGCUCAACACAGCGUGGCAAAGUGGCUGUGGCUAGGCUGCCUCUCUGGAUUCCUCGUCACUCAGCAGGGCAACUCUGAGAGGAAUGCC [A94G U130A A140G] | 0.19 |
| UACGUAGGUGGUUUUCCCCUGAUAGUGCUAAGGGGGCCUGGAAGUUUGGACUGGGCAGAGCUCAACACAGCGUGGCAAAGUGGCUGUGGCUAGGCCGCCUCUCUGGAUUCCUCGUCACUCAGCAGGGCAUCUCUGGGAGAAAUGCC [A94G U96C A136G] | 0 |
| UACGUAGGUGGUUUUCCCCUGAUAGUGCUAAGGGGGCCUGGAAGUUUGGACUGGGCAGAGCUCAACACAGCGUGGCAAAGUGGCUGUGGCUAGGCAGCCUCUCUGGAUUCCUCGUCACUCAGCAGGGCAUCUCUGAGAGGAAUGCC [A94G U96A A140G] | 0.07 |
| UACGUAGGUGGUUUUCCCCUGAUAGUGCUAAGGGGGCCUGGAAGUUUGGACUGGGCAGAGCUCAACACAGCGUGGCAAAGUGGCUGUGGCUUGACUGCCUCUCUGGAUUCCUCGUCACUCAGCAGGGCAUCUCUGAGAGGAGUGCC [A92U A140G A142G] | 1.08 |
| UACGUAGGUGGUUUUCCCCUGAUAGUGCUAAGGGGGCCUGGAAGUUUGGACUGGGCAGAGCUCAACACAGCGUGGCAAAGUGGCUGUGGCUAGGCUGCCUCUCUGGACUCCUCGUCACUCAGCAAGGCAUCUCUGAGAGAAAUGCC [A94G U108C G125A] | 0.44 |
| UACGUAGGUGGUUUUCCCCUGAUAGUGCUAAGGGGGCCUGGAAGUUUGGACUGGGCAGAGCUCAACACAGCGUGGCAAAGUGGCUGUGGCUUGGCUGCCUCUCUGGAUUCCUCGUCUCUCAGCAGGGCAUCUCUGAGAGAAACGCC [A92U A94G A117U U143C] | 0.15 |
| UACGUAGGUGGUUUUCCCCUGAUAGUGCUAAGGGGGCCUGGAAGUUUGGACUGGGCAGAGCUCAACACAGCGUGGCAAAGUGGCUGUGGCUUGACUGCCCCUCUGGGUUCCUCGUCACUCAGCAGGGCAUCUCUGAGAGAAAUGCC [A92U U100C A107G] | 1.36 |
| UACGUAGGUGGUUUUCCCCUGAUAGUGCUAAGGGGGCCUGGAAGUUUGGACUGGGCAGAGCUCAACACAGCGUGGCAAAGUGGCUGUGGCUAGGCUGCCUCUCUGGAUUCCUCGGCACUCAGCAGGGCAUCCCUGAGAGAAAUGCC [A94G U115G U132C] | 1.31 |
| UACGUAGGUGGUUUUCCCCUGAUAGUGCUAAGGGGGCCUGGAAGUUUGGACUGGGCAGAGCUCAACACAGCGUGGCAAAGUGGCUGUGGCUUGACUGCCUCUCUGGGUUCCUCGUCACUCGGCAGGGCAUCUCUGAGAGAAAUGCC [A92U A107G A121G] | 1.11 |
| UACGUAGGUGGUUUUCCCCUGAUAGUGCUAAGGGGGCCUGGAAGUUUGGACUGGGCAGAGCUCAACACAGCGUGGCAAAGUGGCUGUGGCUAGGCUGCCUCUCUGGAUUCCUCGUCACUCAGCAGGGCACCUCUGAGGGAAAUGCC [A94G U130C A138G] | 0.31 |
| UACGUAGGUGGUUUUCCCCUGAUAGUGCUAAGGGGGCCUGGAAGUUUGGACUGGGCAGAGCUCAACACAGCGUGGCAAAGUGGCUGUGGCUAGGCUGCUUCUCUGGGUUCCUCGCCACUCAGCAGGGCAUCUCUGAGAGAAAUGCC [A94G C99U A107G U115C] | 0 |
| UACGUAGGUGGUUUUCCCCUGAUAGUGCUAAGGGGGCCUGGAAGUUUGGACUGGGCAGAGCUCAACACAGCGUGGCAAAGUGGCUGUGGCUAGGCUGCCUCUAUGGAUUCCUCGUCACUCAGCAGGGCAUCUCUGAGAGUAAUGCC [A94G C103A A140U] | 0.16 |
| UACGUAGGUGGUUUUCCCCUGAUAGUGCUAAGGGGGCCUGGAAGUUUGGACUGGGCAGAGCUCAACACAGCGUGGCAAAGUGGCUGUGGCUUGACUGCCUCUCUGGAUUCCUCGUCACUUAGCAGGGCAUCUCUAAGAGGAAUGCC [A92U C120U G135A A140G] | 0.51 |
| UACGUAGGUGGUUUUCCCCUGAUAGUGCUAAGGGGGCCUGGAAGUUUGGACUGGGCAGAGCUCAACACAGCGUGGCAAAGUGGCUGUGGCUAGGCUGCCUCUCUGGAUUCCUCGCCACUCAGCAGGGCAUCUCUGAGGGAAAUGCC [A94G U115C A138G] | 0 |
| UACGUAGGUGGUUUUCCCCUGAUAGUGCUAAGGGGGCCUGGAAGUUUGGACUGGGCAGAGCUCAACACAGCGUGGCAAAGUGGCUGUGGCUAGGCUGCCUCUCUGGAUUCCUCGUCACCCAGCAGGGCAUCUCUGAGAGAGAUGCC [A94G U119C A141G] | 0.34 |
| UACGUAGGUGGUUUUCCCCUGAUAGUGCUAAGGGGGCCUGGAAGUUUGGACUGGGCAGAGCUCAACACAGCGUGGCAAAGUGGCUGUGGCUAGGCUGCCACUCUGGAUUCCUCGUCACUCUGCAGGGCAUCUCUGAGAGAAAUGCC [A94G U100A A121U] | 0.18 |
| UACGUAGGUGGUUUUCCCCUGAUAGUGCUAAGGGGGCCUGGAAGUUUGGACUGGGCAGAGCUCAACACAGCGUGGCAAAGUGGCUGUGGCUUGACUGCCUCACUGGAUUCCUCGUCACUCAGCAGGGCAUCUCUGAGGGAAAUGCC [A92U U102A A138G] | 2.13 |
| UACGUAGGUGGUUUUCCCCUGAUAGUGCUAAGGGGGCCUGGAAGUUUGGACUGGGCAGAGCUCAACACAGCGUGGCAAAGUGGCUGUGGCUAGUCUGCCCCUCUGGGUUCCUCGUCACUCAGCAGGGCAUCUCUGAGAGAAAUGCC [A94U U100C A107G] | 0.24 |
| UACGUAGGUGGUUUUCCCCUGAUAGUGCUAAGGGGGCCUGGAAGUUUGGACUGGGCAGAGCUCAACACAGCGUGGCAAAGUGGCUGUGGCUAGGCUGCCUCUCUGGAUUCCUCGUCGCUCAGCAGGGCAUCUCUGGGAGAAAUGCC [A94G A117G A136G] | 0 |
